Measurements taken from PubChem BioAssay AID743279 (National Center for Advancing Translational Sciences (NCATS), 2014).
Among all 360,000 compounds or so, about 17,000 (4.7%) were called active. The shares of active, inactive and inconclusive entries below differ from those in the screen. Rule as the data show it: active = activity change below about -50%; inconclusive = mostly about -30% to -49%; inactive = weaker than that.

Experiment: qHTS for Inhibitors of Inflammasome Signaling: IL-1-beta AlphaLISA Primary Screen
Conditions: THP-1 LPS/ATP IL-1B secretion, 16 h; at 57.5 µM, active compounds read low
How it was run: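 Secreted IL-1B measured by AlphaLISA bead assay after 16 h compound exposure of THP-1 cells; compounds (final up to 57.5 uM) added 1 h before LPS (250 ng/mL) and ATP (1.25 mM) stimulation; lower signal means less secretion.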
% is scaled to controls: 0 for no effect and ±100 for the full control effect.

Activity change, inactive:
O=c1c2c(nc3c(-c4cccc5ccccc45)c[nH]n13)CCC2 9.51%, O=C(NCCCN1CCOCC1)c1nn(-c2ccccc2)c(=O)c2ccccc12 -2%, CC(=O)N(NC(=O)c1ccccc1Cl)C1CC(=O)N(c2ccc(C)cc2)C1=O (stereo not given) 15.5%, COc1cccc(-c2cnc3c(NC(C)=O)cc(-c4cccc(NC(C)=O)c4)cn23)c1 10.8%, CN(CC(=O)NCCN1CCN(Cc2ccccc2)CC1)S(=O)(=O)c1cccc2nsnc12 30.4%, O=C(NCc1ccco1)C(c1ccc(F)cc1)N(CC1CCCO1)C(=O)Cn1nnc2ccccc21 (stereo not given) -0.834%, Cc1ccc(S(=O)(=O)NC2(C(F)(F)F)NC(=O)N(Cc3ccccc3)C2=O)cc1 (stereo not given) -0.548%, Cc1ccc(S(=O)(=O)N2CCc3cc4c(cc3C2C)OCCCO4)cc1 (stereo not given) -14.2%, Cc1ccc(N2CCN(CC(O)COc3ccccc3)CC2)cc1 (stereo not given) 10.2%, COc1ccc2c(c1)C(=O)N(c1ccc(C)cc1C)C(=O)C2 14.1%, CCCCn1cnc2c1c(=O)n(C)c(=O)n2C 16.7%, C/C(=N\NC(=O)CC#N)C1COc2ccccc2O1 (stereo not given) 5.32%, Cc1ccc(C(=O)Nc2ccc(C(F)(F)F)n(C)c2=O)cc1 34.9%, Cc1cc(C)c(NS(=O)(=O)c2ccccc2)c(C)c1 -7.09%, Cc1ccc(CNC(=O)c2cc3c(=O)n4ccccc4nc3n(CC3CCCO3)c2=N)cc1 (stereo not given) 32.4%, O=C1CCN(CCc2ccccc2)CCN1[C@H](CSc1ccccc1)c1ccccc1 25.1%, O=C(O)CCc1ccc(S(=O)(=O)Nc2ccccc2N2CCCCC2)cc1 33.5%, COc1ccc(/C=C/c2ccncc2)c2ccccc12 12%, CCCCNC(=O)C1CCCN1S(=O)(=O)c1cccc2nsnc12 (stereo not given) 21.8%, CCOc1ccc(OCC(O)CN2CCc3ccccc3C2)cc1 (stereo not given) 6.32%, O=C(NC1CCCCC1)C(c1ccncc1)N(C(=O)c1csnn1)c1ccc(F)cc1 (stereo not given) -18%, S=C1SCN(CC2CC2)CN1CC1CC1 -24.3%, COc1ccc(F)cc1C1=CC(=O)C[C@H](c2ccc3c(c2)OCO3)C1 18.7%, O=C(Nc1cnc2ccccn2c1=O)c1ccc(F)cc1 -12.8%, NC(=O)c1nsc(C(=O)N(c2ccccc2)C(C(=O)NC2CCCC2)c2ccncc2)c1N (stereo not given) 8.32%, COc1ccc(CCN(C)C(=O)COc2ccc(N(C)S(=O)(=O)c3ccc(C)cc3)cc2)cc1OC -9.29%

Activity change, inconclusive:
Cc1ccc(-n2cc(CN3CCN(Cc4nccn4C)CC3)c(-c3ccc(F)cc3)n2)cc1 -41.9%, CC(=O)N1c2ccc(S(=O)(=O)N3CCC(C(=O)N4CCN(c5ccc(Cl)cc5)CC4)CC3)cc2CC1C (stereo not given) -34.8%, Cc1nn(-c2ccc(Cl)cc2)c(Cl)c1/C=N/NC(=O)c1ccc(NS(=O)(=O)c2cccs2)cc1 -31.1%, COCn1c(-c2ccccc2)nc2ccccc21 -45%, CN(C)CCCOC(=O)c1sc2ccccc2c1Cl -39.2%, CC[C@@]12C(=O)N(c3cccc(Br)c3)C(=O)N1[C@H](c1ccc(Cl)cc1)[C@@H]1C(=O)N(C3CCCCC3)C(=O)[C@@H]12 -35.8%, CC(=O)Nc1ccc(S(=O)(=O)N2CCN(CCCOc3cc(C)ccc3C)CC2)cc1 -43.3%, CCn1c(=O)cc(SCC(=O)Nc2ccc(C)cn2)c2ccccc21 -30.2%, CC(=O)c1ccccc1NC(=O)c1ccc(N2CCCC2=O)cc1 -32.5%, O=C1N(Cc2ccccc2)CC2(Br)COCOC12O (stereo not given) -33.8%, O=C(OC(C(=O)Nc1ccc([N+](=O)[O-])cc1Br)c1ccccc1)c1ccccc1 (stereo not given) -31.5%, O=C(c1ccncc1)N1N=C(c2ccc(Cl)cc2)CC1c1ccccc1O (stereo not given) -35.5%, CCOC(=O)N1CCN(c2nnc(-c3ccccc3)c3ccccc23)CC1 -42.9%, COc1cccc(Oc2ncnc(N)c2[N+](=O)[O-])c1 -36.9%, Clc1ccc(C2=NNC(=NCC3CCCO3)SC2)cc1 (stereo not given) -30.4%, Cc1[nH]nc2c1C(c1cccs1)C(C#N)=C(N)O2 (stereo not given) -41.3%, CCOC(=O)c1sc2nc(SCC#N)n(CCCN3CCCC3=O)c(=O)c2c1C -36.9%, Cc1cc(OCC(=O)Nc2cccc(S(=O)(=O)NC3=NCCCCC3)c2)ccc1Cl -45.7%, COc1cc(OC)cc(C(=O)Nc2nc(CC(=O)NCCc3ccccc3)cs2)c1 -34.6%, COc1ccc(CNC(=O)CSc2nnc(Cn3nnc4ccccc43)n2C)cc1 -42.4%, O=C(Nc1nnc(COc2ccc(Cl)cc2)s1)c1ccco1 -35.5%, Cn1nc(C(F)(F)F)c2cc(C(=O)Nc3ccc(Cl)cc3)sc21 -46%, COc1cccc(-c2cc(C(F)(F)F)nc(-n3cc(C)cn3)n2)c1 -34.5%, CCCC(=O)N(C)c1nnc(-c2ccc(OC)cc2)s1 -44.1%, COc1cccc(NC(=O)COc2ccccc2C(N)=O)c1 -38.6%, N=c1n(CCCOc2ccc(F)cc2)c2ccccc2n1CC(N)=O -38.5%, COCCCNC(=O)c1c(N)n(/N=C/c2cccnc2)c2nc3ccccc3nc12 -33.4%, COc1ccc(NC(=O)Nc2ccc3c(c2)C(=O)N([C@H](C)CO)C[C@H](C)[C@@H](CN(C)Cc2ccc(Cl)c(Cl)c2)OCCCC[C@@H](C)O3)cc1 -45%, CC(C)CN(CC(C)C)C(=O)Cc1coc2ccc3ccccc3c12 -31.1%, CCC1CCC2(CC1)NC(=O)N(CC(=O)NCc1ccc(Cl)cc1)C2=O (stereo not given) -45.3%, CN1CCN(S(=O)(=O)c2ccc(SCCOc3ccccc3)nc2)CC1 -40.9%, CCn1cc(C(=O)NCc2ccc3c(c2)OCO3)c(=O)c2cc(S(=O)(=O)N3CCOCC3)ccc21 -32.8%, COc1cc(NC(=O)Nc2nc(C(N)CCc3ccccc3)cs2)cc(OC)c1OC (stereo not given) -34.1%, COc1ccc(CCNCc2c(OC)ccc3ccccc23)cc1OC -47.2%, CCOc1ccc2[nH]c3c(NCC(C)C)ncnc3c2c1 -44.9%, CC1CCc2c(sc(NC(=O)c3ccc(Cn4cc(Br)cn4)o3)c2C(N)=O)C1 (stereo not given) -35.6%, CCc1ccc(C(=O)NNC(=O)C2CCN(c3ncnc4sc(C)c(C)c34)CC2)cc1 -32.1%, CCOc1cc(C(=O)N2CCC(CC3CC(c4ccc(Cl)cc4)=NO3)(C(=O)NCC3CCCCC3)CC2)cc(OCC)c1OCC (stereo not given) -40.5%, Cc1sc(NC(=O)c2ccccc2)c(C(=O)c2ccccc2)c1C -31.9%, CC1(C)CC(=O)C2=C(C1)c1c(ccc3ccccc13)NC2c1ccco1 (stereo not given) -38.7%, O=C(CC1C[C@H](C(=O)N2CCOCC2)[C@@]2(CCC3CCCC3)c3[nH]c4ccccc4c3CCN2C1=O)NCC12CC3CC(CC(C3)C1)C2 (stereo not given in full) -44.1%, CC(C)C1Oc2ccccc2N(CC(=O)NC2CCCCC2)C1=O (stereo not given) -49%, CCN(CC)CCN(C(=O)c1ccc2c(c1)CCCC2)c1nc2c(OC)cccc2s1 -49.1%, O=C(c1ccc(OC2CCN(Cc3ccccn3)CC2)cc1)N1CCCC(O)C1 (stereo not given) -30.3%, COC(=O)/C(=C\Nc1ccccc1)NC(=O)c1ccc(Cl)cc1Cl -36.5%, Cc1cc(NC(=O)Cn2ccsc2=N)c([N+](=O)[O-])cc1C -44%

Activity change, active:
CC1CCCC(NC(=O)C2N(CCCN3CCCC3)C(=O)C3C(C(=O)Nc4cccc(Cl)c4)C4C=CC32O4)C1C (stereo not given) -57.3%, COc1cc(-c2cc3nc(NCCc4ccncc4)ccn3n2)cc(OC)c1OC -58%, COc1ccc(CCN(Cc2cc3cccc(C)c3[nH]c2=O)C(=O)NC2CCCCC2)cc1OC -68.2%, CCN1/C(=C/c2ccc3ccc(C)cc3[n+]2CC)Sc2ccccc21 -101%, CC(C)(C)C(=O)N1CCN(c2ccc(NC(=O)c3ccc4c(c3)OCCO4)cc2)CC1 -76.9%, CCn1cc(CN2CCCC(CO)(Cc3ccc(F)cc3)C2)c2ccccc21 (stereo not given) -65.3%, COc1ccc(Br)cc1CN(C)CC(=O)Nc1cccc(S(=O)(=O)N2CCCC2)c1 -52.5%, N#CCSc1nnc(SCC#N)s1 -71.3%, CCOC(=O)Cc1[nH]nc2c1C(C1C=CCCC1)C(C#N)=C(N)O2 (stereo not given) -89.9%, Cc1cc(NC2CCCCC2)nc(NCc2ccccc2)n1 -74.3%, COc1ccccc1CNc1nc(NCc2ccc(C(C)C)cc2)c2sccc2n1 -83.2%, O=C1SC(SCc2ccccc2)=N/C1=C\c1ccc(C(=O)O)cc1 -58.4%, C=CC[n+]1c(/C=C2\C=Cc3cc(C)ccc3N2CC)ccc2ccccc21 -88.1%
